# Assay results published in PubChem BioAssay AID485294 (National Center for Advancing Translational Sciences (NCATS), 2010).
# In all, about 370,000 compounds went through this assay and about 150 (0.041%) were called active. This list was built around the results that the source calls inconclusive (neither active nor inactive); the mix of calls is not that of the screen. Calls come from the whole dose curve; as a rule, active = well fitted inhibition curve with a large enough effect; inconclusive = small, poorly fitted or top-dose-only effect; inactive = flat fitted curve, though single readings scatter. Potencies of inconclusive entries are left out as doubtful fits.
# Molecular target: Beta-lactamase (Escherichia coli (strain K12)) (UniProt P00811)
# Sequence of UniProt P00811 (P00811 whole entry, looked up): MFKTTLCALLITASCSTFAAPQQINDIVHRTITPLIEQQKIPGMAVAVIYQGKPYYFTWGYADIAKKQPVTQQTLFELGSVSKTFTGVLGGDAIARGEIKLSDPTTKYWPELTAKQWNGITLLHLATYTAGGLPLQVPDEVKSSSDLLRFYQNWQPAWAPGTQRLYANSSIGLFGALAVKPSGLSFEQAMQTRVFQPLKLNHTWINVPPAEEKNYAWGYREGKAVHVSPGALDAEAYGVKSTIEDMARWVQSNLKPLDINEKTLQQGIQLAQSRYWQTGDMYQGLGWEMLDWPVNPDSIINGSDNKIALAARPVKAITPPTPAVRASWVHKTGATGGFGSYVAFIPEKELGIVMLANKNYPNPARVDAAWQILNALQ
# Assay: qHTS Inhibitors of AmpC Beta-Lactamase (assay with detergent); note: nearly all actives have a fitted effect of over 25% in size
# Settings: AmpC hydrolysis of nitrocefin, absorbance 480 nm, 0.01% Triton; series mostly up to 114 µM
# In short: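 20 mM phosphate pH 7.0 + 0.01% (detergent screen) or 0.0001% Triton X-100; 5.3 nM AmpC reagent; cpd preinc 15 min RT; nitrocefin (800 uM stock) to start; A480 q20 s × 4 min; Activity was normalised to no-enzyme and no-compound control wells.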
# Potency is the fitted concentration of half-maximal effect; tags give direction and shape of the fitted curve.
row,SMILES,Potency
1,S=C(Nc1ccc(Cl)cc1)N1CCN(C2CCCCC2)CC1,"inconclusive [inhibitor, full curve, poor fit]"
2,N#CC1(NC(=O)COC(=O)c2cccc(-n3cnnn3)c2)CCCCC1,"inconclusive [inhibitor, partial curve]"
3,CC(C)CN(C(=O)COC(=O)CCC(=O)c1ccc(Cl)cc1)c1c(N)n(Cc2ccccc2)c(=O)[nH]c1=O,"inconclusive [inhibitor, full curve, poor fit]"
4,O=C(CSc1nnc(Cn2nnc(-c3ccccc3)n2)n1-c1ccccc1)Nc1ccccc1,"inconclusive [inhibitor, partial curve]"
5,CCC(=NCc1ccc2c(c1)OCO2)c1c(O)n(C)c(=O)n(C)c1=O,"inconclusive [inhibitor, full curve, poor fit]"
6,CCOC(=O)c1cc(NC(=O)C2C3CCC(O3)C2C(=O)O)cc(C(=O)OCC)c1 (configuration not stated),"inconclusive [inhibitor, full curve]"
7,Cc1nnc(SCC(=O)Nc2cccc(S(=O)(=O)NC3=NCCCCC3)c2)n1Cc1ccccc1,inactive
8,Cc1nc2nc(-c3cccnc3)nn2c(C)c1Cl,inactive
9,O=C(N/N=C/c1ccccc1O)c1ccncc1,"inconclusive [inhibitor, full curve, poor fit]"
10,Cc1cccc2[nH]c3c(N4CCC5(CC4)OCCO5)ncnc3c12,inactive
11,CCc1cc(=O)[nH]c(SCC(=O)NCc2ccc3c(c2)OCO3)n1,"inconclusive [inhibitor, partial curve, poor fit]"
12,O=C(Cc1ccc(F)cc1)N(c1ccccc1)C1C=CS(=O)(=O)C1 (configuration not stated),"inconclusive [inhibitor, full curve]"
13,CC(C)(CNC(=O)c1cc2ccccc2o1)N1CCOCC1,"inconclusive [inhibitor, full curve, poor fit]"
14,C=CCSc1nc2c(c(=O)n(C)c(=O)n2C)n1CC,"inconclusive [inhibitor, full curve]"
15,CCOc1cnc(-c2ccc(OC)cc2)o1,"inconclusive [inhibitor, single point]"
16,CC1=CC(C)(C)N(S(=O)(=O)c2ccc(C)cc2)c2ccc(C)cc21,"inconclusive [inhibitor, full curve, poor fit]"
17,Cc1ccc(S(=O)(=O)NCCNC(=O)CN2CCCC2)cc1,"inconclusive [inhibitor, full curve, poor fit]"
18,CCOCCCNC(=O)c1ccc(C2SCC(=O)N2Cc2ccccc2)cc1 (configuration not stated),"inconclusive [inhibitor, full curve, poor fit]"
19,O=C(O)c1cc(-c2ccccc2Cl)n[nH]1,inactive
20,CCCCOc1ccccc1C1C(C(N)=O)=C(C)Nc2nnnn21 (configuration not stated),"inconclusive [inhibitor, full curve, poor fit]"
21,COc1cc(C2C3=C(CCCC3=O)OC3=C2C(=O)CCC3)ccc1OCC(=O)Nc1ccccc1,"inconclusive [inhibitor, partial curve, poor fit]"
22,COc1ccc(OCC(=O)Nc2ccc(N3CCN(Cc4ccccc4F)CC3)cc2)cc1,"inconclusive [inhibitor, partial curve]"
23,Cc1ccc(NC2c3ccccc3C(=O)N2CCN2CCOCC2)cc1 (configuration not stated),"inconclusive [inhibitor, full curve]"

row,SMILES,Potency
1,O=C(N/N=C/c1ccccc1OCc1ccccc1Cl)c1cccnc1,"inconclusive [inhibitor, full curve]"
2,CCOc1ccc2oc(C(=O)O)c(C)c2c1,inactive
3,Cc1cccc(OCc2nnc(SCC(=O)N3CCN(C(=O)c4ccco4)CC3)n2C)c1C,"inconclusive [inhibitor, partial curve, poor fit]"
4,Cc1ccc(N(C(=O)CCC(=O)Nc2cc(C)on2)C(C(=O)NC2CCCC2)c2cccs2)cc1 (configuration not stated),"inconclusive [inhibitor, full curve, poor fit]"
5,CC(=O)N(C)C1=C(N2CCOCC2)C(=O)c2ccccc2C1=O,"inconclusive [inhibitor, single point]"
6,O=C(NCc1cccs1)N[C@@H](Cc1ccccc1)C(=O)O,"inconclusive [inhibitor, full curve, poor fit]"
7,Cc1c(Oc2cc(NN3CCCCC3)c([N+](=O)[O-])cc2[N+](=O)[O-])cccc1[N+](=O)[O-],"inconclusive [inhibitor, full curve]"
8,CCCCn1c(C)c(C(=O)OCC)c2c(CN3CCCC3)c(O)ccc21,inactive
9,C[C@@H]1O[C@@H]1P(=O)(O)O,"inconclusive [inhibitor, full curve, poor fit]"
10,Cn1c(C(=O)NCc2cccc(F)c2)cc2cc(S(=O)(=O)N3CCCCC3)ccc21,inactive
11,O=C1c2oc3ccc(Br)cc3c(=O)c2C(c2cccc(F)c2)N1CCO (configuration not stated),"inconclusive [inhibitor, partial curve, poor fit]"
12,Cc1ccc(C(=O)NNC(=O)c2ccc(NS(=O)(=O)c3cccs3)cc2)o1,inactive
13,COc1ccc(NC(=O)C2=C(C)C(=O)OC23CCC(C)CC3)cc1Cl (configuration not stated),"inconclusive [inhibitor, full curve, poor fit]"
14,CCOC(=O)N1CCC(NC(=O)c2cc(S(=O)(=O)N3CCc4ccccc43)cn2C)CC1,"inconclusive [inhibitor, full curve, poor fit]"
15,COc1ccc(-c2onc(C)c2C)cc1S(=O)(=O)N1CCC(C)CC1,inactive
16,Cc1ccc([N+](=O)[O-])cc1N/C=C1\CCc2ccccc2C1=O,"inconclusive [inhibitor, full curve, poor fit]"
17,O=C(NC1CCCC1)c1cccc(S(=O)(=O)N2CCOCC2)c1,"inconclusive [inhibitor, full curve, poor fit]"
18,Cc1cccc(-n2ncc(C(=O)NC3CCCC3)c2C2CCN(C(=O)OC(C)(C)C)CC2)c1,"inconclusive [inhibitor, full curve]"
19,COc1ccc(C2C(C#N)=C(N)Nc3nc4ccccc4n32)cc1 (configuration not stated),"inconclusive [inhibitor, partial curve, poor fit]"
20,COc1cccc(/C(C#N)=C/c2c(-c3ccc(Cl)cc3)nc3c(C)cccn23)c1,inactive
21,O=C(c1cc2c(ccc3ccccc32)oc1=O)N1CCCC1,"inconclusive [inhibitor, partial curve]"
22,CCn1c(Cc2ccccc2)nnc1SCC(=O)Nc1cc(C)on1,inactive
23,CCc1ccc(OCC(=O)N(Cc2cccs2)C2CCS(=O)(=O)C2)cc1 (configuration not stated),"inconclusive [inhibitor, partial curve, poor fit]"

row,SMILES,Potency
1,Cc1ccc(OCCCC(=O)Nc2ccc(Cl)c(S(=O)(=O)N3CCOCC3)c2)cc1,inactive
2,CC1CCN(CC(O)COCCOc2ccc(Br)cc2)CC1 (configuration not stated),"inconclusive [inhibitor, full curve, poor fit]"
3,CCc1nn(CC(=O)NCc2cccc(OC)c2)c(=O)c2cc3cc(F)ccc3n12,inactive
4,COc1cccc(NC(=O)CCCN2C(=O)C3CC=CCC3C2=O)c1 (configuration not stated),"inconclusive [inhibitor, full curve, poor fit]"
5,COc1ccccc1NC(=O)CN1CCC(n2nnc3cc(F)ccc32)CC1,"inconclusive [inhibitor, partial curve, poor fit]"
6,COc1ccc(N=C2C(=Nc3ccc(OC)cc3)N(c3ccc(OC)cc3)C(=S)N2C(=O)c2ccc(OC)cc2)cc1,"inconclusive [inhibitor, partial curve, poor fit]"
7,O=C(NCCc1ccc(Cl)cc1)C1COc2ccccc2O1 (configuration not stated),inactive
8,COc1ccc(-c2ccc(C#N)c(OC)n2)cc1,inactive
9,O=C(CCS(=O)(=O)c1cccs1)N1CCN(c2ccc(F)cc2)CC1,inactive
10,CCOCC(=O)Nc1nnc(COc2ccc(Cl)cc2)s1,inactive
11,COC(=O)c1ccccc1OCCCOc1ccc(C=O)cc1OC,inactive
12,O=c1[nH]c2cc(Cl)ccc2n1-c1ccccc1,"inconclusive [inhibitor, partial curve]"
13,O=C(CN1C(=O)C2(SCC(=O)N2c2cccc(Cl)c2)c2ccccc21)NC1CCCCC1 (configuration not stated),inactive
14,O=C(O)c1cc(-n2[nH]c(=O)c3ccccc3c2=O)ccc1Cl,inactive
15,Cc1cc(C)c(/C=C/c2onc(C)c2S(=O)(=O)N2CCC(C(=O)NCc3ccco3)CC2)c(C)c1,inactive
16,COC(=O)c1c(NC(NC(=O)C(C)C)C(Cl)(Cl)Cl)sc2c1CCCC2 (configuration not stated),"inconclusive [inhibitor, full curve, poor fit]"
17,CC(=O)NCc1ccc2[nH]c(C)cc2c1,"inconclusive [inhibitor, full curve, poor fit]"
18,O=C1CSC(c2cn(-c3ccccc3)nc2-c2cc3ccccc3o2)N1Cc1ccccc1 (configuration not stated),"inconclusive [inhibitor, partial curve]"
19,COc1ccccc1N(C(=O)c1ccncc1)c1nc(-c2ccc([N+](=O)[O-])cc2)cs1,"inconclusive [inhibitor, full curve]"
20,Cc1ccc(C(=O)OCC(=O)NCc2cccc(Cl)c2)cc1S(=O)(=O)N1CCCCC1,"inconclusive [inhibitor, full curve, poor fit]"
21,CC(C)(C)NC(=O)C(=O)NNC(=O)C12CC3CC(CC(C3)C1)C2,"inconclusive [inhibitor, single point]"
